# According to PubChem BioAssay (EPA / NIEHS):
# For part of its entries the source gives two or more results. They are shown here; other results are not. Rule for the calls: active = hit-call score of the fitted dose curve at least 0.9, where 1 is the maximum; inactive = score below 0.9. There may be further records. The records of an entry are repeats in other runs, samples, wells, individuals or studies.
# What was measured:
# [1] = ATG_PXRE_CIS: Attagene CIS-FACTORIAL HepG2 Assay for human Pregnane X Receptor Element (PXRE) (AID 2282957); details: HepG2 Attagene CIS-FACTORIAL PXRE reporter, mRNA; actives raise or lower the signal
# In short: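 HepG2 cells transiently transfected with cis-regulated multiple reporter transcription units; endogenous factor activity measured as reporter mRNA 24 h after dosing. RT-PCR, fluorescent primer extension, HpaI digestion, capillary electrophoresis; bidirectional fit versus DMSO baseline.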
# [2] = ATG_DR4_LXR_CIS: Attagene CIS-FACTORIAL HepG2 Assay for human Liver X Receptor (LXR), DR4 submotif (AID 2282929); details: HepG2 Attagene DR4 cis-reporter, mRNA transcription; actives raise or lower the signal
# In short: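 Cells were transfected with multiple reporter transcription units, exposed to chemicals for 24 hours, then lysed for RNA. Reporter mRNA induction was measured by RT-PCR with capillary electrophoresis detection and fitted in both directions relative to DMSO.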
# [3] = ATG_AP_2_CIS: Attagene CIS-FACTORIAL HepG2 Assay for human Activator Protein 2 (AP-2) (AID 2282932); details: HepG2 AP-2 cis-reporter, Attagene transcription factor profiling; actives raise or lower the signal
# In short: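 Multiplexed mRNA reporter assay in HepG2: cis-regulated units report endogenous factor activity after 24 h treatment. Fluorescence from capillary electrophoresis of RT-PCR products gives the signal, with DMSO as baseline.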
# [4] = ATG_E_Box_CIS: Attagene CIS-FACTORIAL HepG2 Assay for human Enhancer Box (E-box) (AID 2282936); details: HepG2 E-box cis-reporter transcription, actives raise or lower the signal
# In short: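 First, HepG2 cells receive multiple cis-regulated reporter constructs by transient transfection. Next, chemicals are applied for 24 h. Finally, reporter mRNA is quantified via RT-PCR and capillary electrophoresis, with DMSO as baseline.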
# [5] = ATG_FoxO_CIS: Attagene CIS-FACTORIAL HepG2 Assay for human Forkhead box O (FoxO) (AID 2282943); details: HepG2 Attagene cis-reporter, FoxO element, mRNA; actives raise or lower the signal
# In short: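 Transfected HepG2 reporter cells exposed to test chemical for 24 h; reporter RNA measured by reverse transcription, PCR and fluorescent capillary electrophoresis; curves fitted for increases and decreases against DMSO.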
# [6] = ATG_ISRE_CIS: Attagene CIS-FACTORIAL HepG2 Assay for human Interferon Regulatory Factor 1 (IRF1) binding to an Interferon-Stimulated Response Element (ISRE) (AID 2282948); details: HepG2 ISRE cis-reporter (Attagene), mRNA transcription readout; actives raise or lower the signal
# In short: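 Transfected HepG2 (multiple reporter transcription units, cis elements) dosed 24 h. RNA → oligo(dT) RT → PCR → 6-FAM primer extension → HpaI → CE. DMSO = negative control/baseline.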
# [7] = ATG_TGFb_CIS: Attagene CIS-FACTORIAL HepG2 Assay for human Transforming Growth Factor (TGF) (AID 2282967); details: HepG2 Attagene CIS TGFb reporter, mRNA transcription; actives raise or lower the signal
# In short: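 Transient MRTU transfection of HepG2 (FuGene 6). Dose 24 h. TriZol RNA, oligo(dT) RT, PCR, 6-FAM primer extension, HpaI cut, CE. Bidirectional fit, DMSO = baseline.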
# [8] = ATG_NRF2_ARE_CIS: Attagene CIS-FACTORIAL HepG2 Assay for human Nuclear Factor Erythroid 2 Related Factor 2 (NFR2) response to Antioxidant Response Elements (ARE) (AID 2282992); details: HepG2 Attagene ARE/NRF2 reporter, transcription factor activity; actives raise or lower the signal;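 note: reporter mRNA level measured by RT-PCR and capillary electrophoresis fluorescence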
# In short: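 Transient MRTU transfection of HepG2; 24 h compound exposure; TriZol RNA, RT with oligo(dT), PCR, 6-FAM primer extension, HpaI cut, CE. Bidirectional fit vs DMSO.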
SMILES,AC50 [1],AC50 [2],AC50 [3],AC50 [4],AC50 [5],AC50 [6],AC50 [7],AC50 [8]
O=C1C2(Cl)C3(Cl)C4(Cl)C(Cl)(Cl)C5(Cl)C3(Cl)C1(Cl)C5(Cl)C24Cl (centres undefined),"active: 945 nM, 929 nM, 1.12 µM, 20 µM [separate samples]",,,,,,,
C[C@@H]1C[C@@H]([C@H](O)CC2CC(=O)NC(=O)C2)C(=O)[C@@H](C)C1,"active: 6.53, 23.4, 3.24, 12.9 µM [separate samples]","active: 41.2 µM, 316 nM, 24.2 µM, 19 µM [separate samples]","active: 479 nM, 2.86 µM, 655 nM, 1.92 µM [separate samples]","active: 2.39 µM, 970 nM, 2.62 µM, 3.75 µM [separate samples]","active: 22.6, 1.81, 4.75, 4.19 µM [separate samples]","active: 2.87, 6.8, 1.2, 2.31 µM [separate samples]","active: 32.1, 22.3, 5.52, 8.87 µM [separate samples]","active: 231 nM, 17.8 µM, 3.83 µM, 22.1 µM [separate samples]"
